This passage reports self-cleavage results from the RNAGym collection of RNA variant scans (doi:10.7554/elife.90254).

The labels stand for the following.
B1: OR4K15 (parent)
chain: GUUAACGGUCAUAGGCCAUGGAAACUAGGAGCACCAUUUCGCUGCCAGUGAAGAAAUGAACAAAGAAAAUCUGGGCCAGGCAGGCAUCAAAAGAAAUAGUCUUGCGCUCAACCAGAAAGUCUGUAAUCAUUUUAAGGGUA

The source gives no read counts; variants with many changes may rest on few reads.

In the series the parent is B1. Kind of series: self-cleavage, relative activity (ratio to wild type); higher = more cleavage; in vitro, sequencing; the parent is a self-cleaving ribozyme.
Consider GUUAACGGCCAUAGGCCAUGGAAGCUAGGAGCACCAUUUCGCUGCCAGUGAAGAAAUGAACAAAGAGAAUCUGGGCCAGGCAGGCAUCAAAAGAAAUAGUCUUGCGCUCAACCAGAAAGUCUGUAAUCAUUUUAAGGGUA, for which the self-cleavage turned out to be 1.1.

In the case of GUUAACGGCCAUAGGCCAUGGAAGCUAGGAGCACCAUUUCGCUGCCAGUGAGGAAAUGGACAAAGAGAAUCUGGGCCAGGCAGGCAUCAAAAGAAAUAGUCUUGCGCUCAACCAGAAAGUCUGUAAUCAUUUUAAGGGUA, the self-cleavage turned out to be 1.69.

For GUUAACGGCCAUAGGCCAUGGAAACUAGGAGCUCCAUUUCGCUGCCAGUGAAGAAAUGAACAAAGAAAGUCUGGGCCAGGCAGGCGUCAAAAGAAAUAGUCUUGCGCUCAACCUGAAAGUCUGUAAUCAUUUUAAGGGUA, the self-cleavage was 0.09. With GUUAACGGCCAUAGGCCAUGGAAACUGGGAGCACCAUUUCGCUGCCAGUGAAGGAAUGAACAAAGAAAAUCUGGGCCAGGCAGGCAUCAAAAGAAAUAGUCUUGCGCUCAACCAGAAAGUCUGUAAUCAUCUUAAGGGUA, the self-cleavage came out at 1.79. In the case of GUUAACGGCCAUAGGCCAUGGAGACUAGGGGCACCACUUCGCUGCCAGUGAAGAAAUGAACAAAGAAAAUCUGGGCCAGGCUGGCAUCAAAAGAAAUAGUCUUGCGCUCAACCAGAAAGUCUGUAAUCACUUUAAGGGUA it was 0.12; in that of GUUAACGGCCAUAGGCCAUGGAAACUAGGGGCGCCAUUUCGCUGCCAGUGAAGAAAUGAGCAAAGAAAAUCUGGGCCAGGCAGGCAUCAAAAGAAAUAGUCUUGCGCUCCACCAGAAAGUCUGUAAUCAUUUUAAGGGUA, 0.21. In the case of GUUAACGGCCAUAGGCCAUGGAAACUAGGGGCACCAUUUCGCUGCCAGUGAAGAAAUGAACAAAGAAAAUCUGGGCCAGGCAGGCAUCAAAAGAUAUAGUCUUGCGCUCAACCAGGAAGUCCGUAAUCAUUUUAAGGGUA it was 1.13; in that of GUUAACGGCCAUAGGCCAUGGAGACUAGGAGCACCAUUUCGCUGCCAGUGAAGAAAUGAACAAAGAAAAUCUGGGCCAGGCAGGCAUCAAAAGAAAUAGUCUUGCGCUCAACAAGAAAGUCCGUAAUCAUUUUAAGGGUA, 0.06.

On to GUUAACGGCCAUAGGCCAUGGAGACUAGGAGCACCAUUUCGCUGCCAGUGAAGAAAUGAACAAAGUAAAUCUGGGCCAGGCAGGCAUCAAAAGGAAUAGUCAUGCGCUCAACCAGAAAGUCUGUAAUCAUUUUAGGGGUA, for which the self-cleavage is 0.33. As for GUUAACGGCCAUAGGCCAUGGAAACUAGGAGCGCCAUUUCGCUGCCAGUGAGGAAAUGAACAGAGAAAAUCUGGGCCAGGCAGGCAUCAAAAGAAAUAGUCUUGCGCUCAACCAGAAAGUCUGUAAUCAUUUUAAGGGUG, the self-cleavage is 1.87. With GUUAACGGCCAUAGGCCAUGGAAGCUAGGAGCACCAUUUCGCUGCCAGUGAAGAAAUGAACAAAGAAAGUCUGGGCCAGGCAGGCAUCGAAAGAAAUAGUCUUGCGCUCAACCAGAAAGUCUGUAAUCAUUCUAAGGGUA the figure was 1.93; with GUUAACGGCCAUAGGCCAUGGAAGCUAGGAGCACCAUUUCGCUGCCAGUGAAGAAAUGAACAAAGAAAAUCUGGGCCAGGCAGGCAUCAAAAGAAAUAGUCUUGCGCUCAACCAGAAGGUCUGUAAUCAUUUUAAGGGUA, 0.94. GUUAACGGCCAUAGGCCAUGGAAACUAGGAGCGCCAUUUCGCUGCCAGUGAAGAAAUGAACAAAGAAAAUCUGGGCCAGGCAGGCACCAAAAGAAAUAGUCUUGCGCUCAACCAGAAAGUCUGUAAUCAUUUUAAGGGUA: the self-cleavage was 0.37. With GUUAACGGCCAUAGGCCAUGGAAGCUAGGAGCACCAUUUCGCUGCCAGUGAAGAAAUGAACAAAGAAAAUCUGGGCCGGGCAGGCAUCAAAGGAAGUAGUCUUGCGCUCAACCAGAAAGUCUGUAAUCAUUUUAAGGGUA the figure was 0.38; with GUUAACGGCCAUAGGCCAUGGAGACUAGGAGCACCAUUUCGCCGCCAGUGAAGAAAUGAACAAAGAAAAUCUGGGCCAGGCAGGCAUCUAAGGAAAUAGUCUUGCGCUCAACCAGAAAGUCUGUAAUCAUUUUAAGGGUA, 1.14.

GUUAACGGCCAUAGGCCAUGGAAACUAGGAGCGCCAUUUCGCUGCCAGUGAAGAAAUGAACAAAGAAAAUCUGGGCCAGGCAGGCAUCAAAAGAAACAGUCUUGCGCUCUACCAGAAAGUCUGUAAUCAUUUUAAGGGUA: the self-cleavage worked out at 0.44. Consider GUUAACGGCCAUAGGCCAUGGAUACUAGGAGCACCAUUUCGCUGCCAGUGAAGAAAUGAACAAAGAAGAUCUGGGCCAGGCAGGCACCAAAAGAAAUAGUCUUGCGCUCAACCGGAAAGUCUGUAAUCAUUUUAAGGGUA, for which the self-cleavage turned out to be 0.77. For GUUAACGGCCAUAGGCCAUGGAAGCUAGGAGCACCAUUUCGCUGCCAGUGAUGAAAUGAACAAAGAAAAUCAGGGCCAGGCAGGCAUCAAAAGAAAUAGUCUUGCGCUCAACCAGAAAGUCUGUAAUCAUUCUAAGGGUA, the self-cleavage is 0.12. On to GUUAACGGCCAUAGGCCAUGGAGACUAGGAGCACCAUUUCGCUGCCAGAGAAGAAAUGAACAAAGAAAAUCUGGGCCAGGCAGGCUUCAAAAGAAACAGUCUUGCGCUCAGCCAGAAAGUCUGUAAUCAUUUUAAGGGUA, for which the self-cleavage worked out at 0.

With GUUAACGGCCAUAGGCCAUGGAUACUAGGAGCACCAUUUCGCUGCCAGUGAAGAAAUGAACAAAGAAAAUCUGGGCCAGGCAGGCAUCAAAAGAAAUAGUAUUGGGCUCAACCAGAAAGUCUGUAAUCAUUUUAAGGGUA, the self-cleavage was 0.02.
